# Experimental data published in PubChem BioAssay (NCATS).
# This list was built around the results that the source calls inconclusive (neither active nor inactive); the mix of calls is not that of the screen. For part of these data: Potencies of inconclusive entries are doubtful fits and often do not repeat. Active and inactive are the calls of the source. The call rests on the fitted dose curve; in most records, active means well fitted curve in the direction sought with a large enough effect; inconclusive means small, poorly fitted or top-dose-only effect, or another doubt; inactive means no such curve, though single readings can be large; an effect the other way counts as inactive or inconclusive.
# Legend:
# [1] = OV-KATE Cancer Cell Toxicity qHTS against the NCATS CANVASS Library (AID 1347345); further: potency means the concentration at half of the fitted maximal effect
# Method in brief: (§1)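 Per well, 1000 cells; exposure 72 h with compound at 11 final concentrations; readout CellTiter-Glo luminescence.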
# [2] = UWB1.289 Cancer Cell Toxicity qHTS against the NCATS CANVASS Library (AID 1347347); further: potency means the concentration at half of the fitted maximal effect; nearly all actives have a fitted effect of over 60% in size
# Method in brief: as §1
# [3] = Panc-1005 Cancer Cell Toxicity qHTS against the NCATS CANVASS Library (AID 1347349); further: potency means the concentration at half of the fitted maximal effect; nearly all actives have a fitted effect of over 60% in size
# Method in brief: as §1
# [4] = SW1088 Cancer Cell Toxicity qHTS against the NCATS CANVASS Library (AID 1347350); further: potency means the concentration at half of the fitted maximal effect; nearly all actives have a fitted effect of over 75% in size
# Method in brief: as §1
# [5] = U-118MG Cancer Cell Toxicity qHTS against the NCATS CANVASS Library (AID 1347351); further: potency means the concentration at half of the fitted maximal effect
# Method in brief: as §1
# [6] = A2780 Cisplatin Sensitive Ovarian Cancer Cell Toxicity qHTS against the NCATS CANVASS Library (AID 1347353); further: potency means the concentration at half of the fitted maximal effect; nearly all actives have a fitted effect of over 60% in size
# Method in brief: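 Cells are plated at 750 per well and rest for 4 hours. Compounds are added across eleven concentrations, and incubated 72 hours before ATP is quantified by luminescence.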
# [7] = UWB1.289-WTBRCA1 Cancer Cell Toxicity qHTS against the NCATS CANVASS Library (AID 1347354); further: potency means the concentration at half of the fitted maximal effect
# Method in brief: (§2)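 First, 1000 cells go into each well and rest for 4 hours. Next, an 11-point dilution range is pinned in. Plates then incubate 72 hours before CellTiter-Glo addition and luminescence reading.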
# [8] = HEK-293 Cancer Cell Toxicity qHTS against the NCATS CANVASS Library (AID 1347355); further: potency means the concentration at half of the fitted maximal effect; nearly all actives have a fitted effect of over 65% in size
# Method in brief: as §2
# [9] = KB-8-5-11 Cancer Cell Toxicity qHTS against the NCATS CANVASS Library (AID 1347364); conditions: activity change, negative = toxicity: at 46.1 µM (top of the series); further: potency means the concentration at half of the fitted maximal effect; nearly all actives have a fitted effect of over 75% in size
# Method in brief: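 Terse: KB-8-5-11, 500 cells/well, 72 hr, 37C/5% CO2, 11-pt titration, CellTiter-Glo readout; confirmatory runs ± 1uM tariquidar in medium.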
# [10] = SDT Cancer Cell Toxicity qHTS against the NCATS CANVASS Library (AID 1347365); further: potency means the concentration at half of the fitted maximal effect; nearly all actives have a fitted effect of over 60% in size
# Method in brief: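 Cytotoxicity is measured from cellular ATP: compounds in an 11-point concentration series are pinned onto SDT cells, incubated 72 hr at 37C, then CellTiterGlo is added and luminescence read.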
# [11] = qHTS for ATAD5 Agonist screened against the NCATS CANVASS Library (AID 1347367);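 further: luciferase reporter driven by ATAD5 which rises upon DNA damage; potency means the concentration at half of the fitted maximal effect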
# Method in brief: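 Luciferase reporter under ATAD5 control, stably integrated in HEK293T cells (2000/well). Compounds (11 points) incubated 16 h at 37C; viability read first by CellTiter-Fluor, then luminescence reporting ATAD5 activation. MMS positive control.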
# [12] = MCF7 Cancer Cell Toxicity qHTS against the NCATS CANVASS Library (AID 1347369); conditions: activity change, negative = cytotoxicity: at 46 µM (top of the series); further: potency means the concentration at half of the fitted maximal effect
# Method in brief: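 MCF7 cells (500/well) were exposed 72 h at 37 °C to compounds in an 11-point series. Viability was read as ATP content by CellTiterGlo luminescence.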
# [13] = qHTS for ATAD5 Antagonist screened against the NCATS CANVASS Library (AID 1347370); further: potency means the concentration at half of the fitted maximal effect; nearly all actives have a fitted effect of over 65% in size
# Method in brief: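 Compounds (11-point) co-dosed with 10 µM 5-FUrd for 16 h at 37 °C onto HEK293T-ATAD5 luciferase reporter cells. Viability measured by CellTiter-Fluor fluorescence, then ATAD5 reporter signal by luminescence.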
# [14] = qHTS for H2AX Agonists against the NCATS CANVASS Library (AID 1347378); further: potency means the concentration at half of the fitted maximal effect
# Method in brief: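 CHO-K1 cells (1000/well, overnight at 37C) exposed to compounds at several concentrations for 3 hr at 37C, 0.76% DMSO final. Lysates read by TR-FRET (phospho-H2AX S139 Eu-cryptate antibody / H2AX-d2 antibody) after 24 hr at room temperature; 665/615 nm ratio.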
# [15] = qHTS for Antimalaria activity screened against the NCATS CANVASS Library (AID 1347380); further: potency means the concentration at half of the fitted maximal effect; nearly all actives have a fitted effect of over 40% in size
# Method in brief: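 Compounds are titrated over 11 concentrations onto Dd2 parasite cultures (0.3% parasitemia, 2.5% hematocrit). Growth over 72 h at 37C in low oxygen is measured as SYBR Green DNA fluorescence after lysis.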
# [16] = qHTS for Activators of p53 Stress Response Pathway screened against the NCATS CANVASS Library (AID 1347388); further: potency means the concentration at half of the fitted maximal effect
# Method in brief: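 p53RE-bla HCT-116 cells (4000/well) were plated 5 h at 37C, exposed to compounds for 16 h at 37C over an 11-point concentration series, then loaded with CCF4 for 2 h at room temperature; 460/530 nm emission ratio read.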
# [17] = qHTS assay for small molecule disruptors of mitochondrial membrane potential screened against the NCATS CANVASS Library (AID 1347389)
# Method in brief: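 Mitochondrial depolarization in HepG2 cells is scored as a falling aggregate-to-monomer fluorescence ratio after 1 hr compound exposure and 30 min staining with Mito-MPS dye at 37C, each compound tested as an 11-point titration.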
# [18] = qHTS for activators of Nrf2/ARE signaling pathway screened against the NCATS CANVASS Library (AID 1347391)
# Method in brief: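 Beta-lactamase reporter signal, read as 460 and 530 nm emission under 405 nm excitation after 2 h CCF4 loading, reflected ARE activation in HepG2 cells treated 16 h with an 11-point series.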
# [19] = Redox Reaction Profiling qHTS: Assay Interference Panel against the NCATS CANVASS Library (AID 1347401); further: potency means the concentration at half of the fitted maximal effect
# Method in brief: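 Quantitative HTS over an 11-point series was run in HEPES pH 7.3 with 50 mM NaCl, 200 uM DTT and 5 uM resazurin. Initial and 15-min resorufin fluorescence readings were taken.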
# [20] = Tertiary RLuc qRT-PCR qHTS assay for Zika virus inhibitors (AID 1347169); further: potency means the concentration at half of the fitted maximal effect; nearly all actives have a fitted effect of over 55% in size
# Method in brief: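 Vero cells (1,000/well) infected with recombinant ZIKV-RLuc (Cambodian) at MOI 1-2 after compound addition, 48-72 hrs at 37 degrees C. Live-cell Renilla luciferase substrate added; luminescence read after 1-1.5 hrs.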
# [21] = HPAF-II Cancer Cell Toxicity qHTS against the NCATS CANVASS Library (AID 1347346); further: potency means the concentration at half of the fitted maximal effect; nearly all actives have a fitted effect of over 55% in size
# Method in brief: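 First, HPAF-II cells are plated (1000 cells/well) and held 4 h at 37 degrees C. Next, compounds are pin-transferred as an 11-point series. After 72 h, CellTiter-Glo is added and luminescence measured.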
# [22] = OV-SAHO Cancer Cell Toxicity qHTS against the NCATS CANVASS Library (AID 1347348); conditions: OV-SAHO viability, CellTiter-Glo luminescence, 72 h; activity change, negative = cytotoxicity: at 38.3 µM (top of the series); further: potency means the concentration at half of the fitted maximal effect; nearly all actives have a fitted effect of over 55% in size
# Method in brief: as §1
# [23] = test system: NAD(P)H diaphorase (Clostridium kluyveri); experiment: Diaphorse counterscreen qHTS: Assay Interference Panel against the NCATS CANVASS Library (AID 1347362); further: potency means the concentration at half of the fitted maximal effect
# Method in brief: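 Clostridium kluyveri diaphorase in PBS with 0.01% Tween-20 was preincubated 15 min at room temperature in the dark with compounds (11-point series). Resorufin fluorescence (ex 525/20, em 598/25) was read 5 min after adding resazurin/NADH.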
# [24] = molecular target: Luciferin 4-monooxygenase (Photinus pyralis) (UniProt P08659); experiment: Firefly luciferase counterscreen qHTS: Assay Interference Panel against the NCATS CANVASS Library (AID 1347363); further: potency means the concentration at half of the fitted maximal effect
# Sequence of UniProt P08659 (P08659 whole entry, looked up): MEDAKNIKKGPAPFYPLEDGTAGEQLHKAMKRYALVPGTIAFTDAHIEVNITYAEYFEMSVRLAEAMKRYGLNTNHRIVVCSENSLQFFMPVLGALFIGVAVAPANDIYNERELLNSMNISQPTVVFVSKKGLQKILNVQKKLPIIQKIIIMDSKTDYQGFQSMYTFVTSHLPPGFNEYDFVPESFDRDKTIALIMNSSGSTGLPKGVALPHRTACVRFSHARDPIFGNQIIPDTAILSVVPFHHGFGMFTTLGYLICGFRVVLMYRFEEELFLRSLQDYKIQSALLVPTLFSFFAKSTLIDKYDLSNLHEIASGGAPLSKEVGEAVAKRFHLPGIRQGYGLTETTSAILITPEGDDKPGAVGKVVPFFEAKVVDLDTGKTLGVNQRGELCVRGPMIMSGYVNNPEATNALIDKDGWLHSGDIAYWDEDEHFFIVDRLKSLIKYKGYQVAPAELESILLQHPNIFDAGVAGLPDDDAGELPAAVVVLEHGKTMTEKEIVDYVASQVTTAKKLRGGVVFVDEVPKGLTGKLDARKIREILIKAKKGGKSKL
# Method in brief: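 Purified P. pyralis luciferase was added to compounds (11-point series) preincubated 15 min at room temperature with substrate containing 0.013 mM D-luciferin and 0.013 mM ATP; luminescence was read after 5 min.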
# [25] = molecular target: Nuclear receptor subfamily 1 group I member 3 (Homo sapiens) (UniProt Q14994); experiment: qHTS for Constitutive Androstane Receptor (CAR) Agonist screened against the NCATS CANVASS Library (AID 1347373)
# Sequence of UniProt Q14994 (Q14994 whole entry, looked up): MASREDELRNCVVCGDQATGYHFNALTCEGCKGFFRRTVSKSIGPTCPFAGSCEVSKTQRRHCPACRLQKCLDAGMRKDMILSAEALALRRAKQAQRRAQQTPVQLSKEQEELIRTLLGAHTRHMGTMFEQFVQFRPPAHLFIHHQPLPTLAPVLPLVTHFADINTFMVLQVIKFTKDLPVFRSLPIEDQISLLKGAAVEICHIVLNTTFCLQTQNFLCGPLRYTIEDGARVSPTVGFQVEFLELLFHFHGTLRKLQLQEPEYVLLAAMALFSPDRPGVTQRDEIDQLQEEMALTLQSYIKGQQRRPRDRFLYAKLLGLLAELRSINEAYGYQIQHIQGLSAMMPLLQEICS
# Method in brief: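 Cells were plated and allowed to attach for 4hr, then dosed with compound in an 11-point series alongside 1.5uM PK11195. After 24hr at 37C, viability was measured fluorometrically and CAR-driven CYP2B6 reporter luminescence was recorded.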
# [26] = qHTS for Hypoxia signaling pathway (HIF-1) antagonists against the NCATS CANVASS Library (AID 1347374)
# Method in brief: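 Antagonism scored as loss of CoCl2-driven (60 uM stock added) HRE beta-lactamase signal, read by CCF4 FRET at 460/530 nm. Compounds were tested in an 11-point series on ME-180 reporter cells for 17 hrs at 37C, with parallel CellTiter-Glo cytotoxicity.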
# [27] = 10-beta competent E. coli microbial cell viability qHTS against the NCATS CANVASS Library (AID 1347376); further: potency means the concentration at half of the fitted maximal effect
# Method in brief: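 Bacterial suspension diluted to 0.2 OD was dosed with compounds, 11-point series, then held overnight at 37C. BacTiter-Glo reagent was added, and after 20 min at room temperature ATP-dependent luminescence was measured.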
# [28] = Vero-766 cells viability qHTS against the NCATS CANVASS Library: Counterscreen for Zika virus inhibition assay (AID 1347394); conditions: Vero 766 viability, CellTiter-Glo luminescence, 72 h; activity change, negative = cytotoxic: at 46.1 µM (top of the series)
# Method in brief: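 Vero 766 cells (1000/well), without Zika virus, were exposed to compounds for 72 h at 37C. Viability was measured by CellTiter Glo luminescence. Media-only wells served as 100% inhibition.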
# Tags describe the fitted curve by direction and shape.
structure (smiles),measurement,setting,value
C/C(=C\[C@H](C)C(=O)/C=C/CC1CC(=O)NC(=O)C1)[C@@H]1OC(=O)/C=C/CC/C=C/C[C@@H](O)[C@@H]1C,Potency,[1],"inconclusive: 2.98 µM [cytotoxic, full curve]"
same,Potency,[2],active: 2.98 µM
same,Potency,[3],"inconclusive: 3.35 µM [cytotoxic, full curve]"
same,Potency,[4],active: 16.8 µM
same,Potency,[5],"inconclusive: 6.68 µM [cytotoxic, full curve]"
same,Potency,[6],active: 1.18 µM
same,Potency,[7],"inconclusive: 6.66 µM [cytotoxic, partial curve]"
same,Potency,[8],active: 3.72 µM
same,Potency,[9],"inconclusive: 33.2 µM [cytotoxic, partial curve, poor fit]"
same,Potency,[10],active: 0.662 µM
same,Potency,[11],"inconclusive: 2.95 µM [activator, partial curve]"
same,Potency,[12],"inconclusive: 1.31 µM [cytotoxic, full curve]"
same,Potency,[13],active: 3.31 µM
same,Potency,[14],"inconclusive: 8.64 µM [activator, full curve]"
same,Potency,[15],"inconclusive: 13.3 µM [cytotoxic, partial curve, poor fit]"
same,Potency,[16],"inconclusive: 0.933 µM [activator, partial curve]"
same,Potency,[17],"inconclusive: 20.9 µM [inhibitor, partial curve, poor fit]"
same,Potency,[18],"inconclusive: 2.95 µM [activator, single point]"
same,Potency,[19],"inconclusive: 10.8 µM [activator, partial curve]"
O=C(Nc1ccc(Oc2ccccc2)cc1)O[C@@H]1CO[C@H]2[C@@H]1OC[C@@H]2NS(=O)(=O)c1ccc(Cl)cc1,Potency,[20],"inconclusive: 1.04 µM [inhibitor, full curve, poor fit]"
COc1cc2c(c(O)c1O)C(=O)c1c(coc1C)C2=O,Potency,[21],"inconclusive: 21.1 µM [cytotoxic, single point]"
same,Potency,[2],active: 13.3 µM
same,Potency,[22],active: 4.2 µM
same,Potency,[3],active: 9.43 µM
same,Potency,[5],active: 21.1 µM
same,Potency,[7],active: 18.8 µM
same,Potency,[23],active: 4.31 µM
same,Potency,[24],"inconclusive: 21.7 µM [inhibitor, partial curve, poor fit]"
same,Potency,[25],"inconclusive: 14.8 µM [activator, partial curve]"
same,Potency,[26],active: 5.29 µM
same,Potency,[27],"inconclusive: 16.6 µM [cytotoxic, partial curve, poor fit]"
same,Potency,[14],"inconclusive: 10.9 µM [activator, full curve]"
same,Potency,[15],active: 10.6 µM
same,Potency,[16],"inconclusive: 20.9 µM [activator, partial curve]"
same,Potency,[18],"inconclusive: 5.24 µM [activator, partial curve]"
same,"activity change, negative = cytotoxic",[28],inconclusive: -30.3% [cytotoxic]
